# Experimental data from the supplement of paper PMC12217912.
# Some of the results follow. Sequences were assembled here from the parent chain. Values near 0.05 are background.
# B1: TEV protease; numbered along this chain (parent)
# chain: MGESLFKGPRDYNPISSSICHLTNESDGHTTSLYGIGFGPFIITNKHLFRRNNGTLVVQSLHGVFKVKDTTTLQQHLVDGRDMIIIRMPKDFPPFPQKLKFREPQREERICLVTTNFQTKSMSSMVSDTSCTFPSGDGIFWKHWIQTKDGQCGSPLVSTRDGFIVGIHSASNFTNTNNYFTSVPKNFMELLTNQEAQQWVSGWRLNADSVLWGGHKVFMVKPEEPFQPVKEATQL
# Variants of: B1
# Assay: raw area under fraction-flipped curve 0-4 h after induction (AUC4h, not background-subtracted), DNA-recorder readout of cleavage of the substrate (dimensionless); higher = more cleavage of the substrate by the protease variant
# Conditions: temperature: 34 °C; time window: 0-4 h after rhamnose induction
# Experimental: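 In vivo DNA recorder in E. coli TOP10(DE3) ΔrhaA at 34 °C. Each TEVp single-site mutant (parent TEVp 0) is paired with a single-site variant of the 7-mer TEVs (canonical ENLYFQ|S). The substrate sits between flexible linkers in a Bxb1-sfGFP-TEVs-SsrA fusion, so cleavage stabilises Bxb1 and speeds flipping of a recombination array, read by NGS. The value is the raw area under the fraction-flipped curve over 0-4 h after rhamnose induction (AUC4h), with ≥20 reads per time point. It is not background-subtracted; inactive controls average about 0.047.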
# 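Note: Bxb1 expression induced with 0.2% (w/v) L-rhamnose at OD600 near 0.5, cultures sampled hourly, flipped fraction per protease–substrate barcode pair counted by paired-end Illumina sequencing.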
Variant,area with substrate ENLYFAS,area with substrate ENLYFCS,area with substrate ENLYFES,area with substrate ENLYFFS,area with substrate ENLYFGS,area with substrate ENLYFHS,area with substrate ENLYFIS,area with substrate ENLYFLS,area with substrate ENLYFMS,area with substrate ENLYFNS,area with substrate ENLYFPS,area with substrate ENLYFRS,area with substrate ENLYFSS,area with substrate ENLYFTS,area with substrate ENLYFVS,area with substrate ENLYFWS,area with substrate ENLYFDS,area with substrate ENLYFKS,area with substrate ENLYFYS
MGESLFKGPRDYNPISLSICHLTNESDGHTTSLYGIGFGPFIITNKHLFRRNNGTLVVQSLHGVFKVKDTTTLQQHLVDGRDMIIIRMPKDFPPFPQKLKFREPQREERICLVTTNFQTKSMSSMVSDTSCTFPSGDGIFWKHWIQTKDGQCGSPLVSTRDGFIVGIHSASNFTNTNNYFTSVPKNFMELLTNQEAQQWVSGWRLNADSVLWGGHKVFMVKPEEPFQPVKEATQL [S17L],0.0622,0.0589,0.0574,0.0616,0.0717,0.0624,0.0487,0.0505,0.0891,0.0624,0.0621,0.0606,0.0595,0.0533,0.0573,0.0563,–,–,–
MGESLFKGPRDYNPISHSICHLTNESDGHTTSLYGIGFGPFIITNKHLFRRNNGTLVVQSLHGVFKVKDTTTLQQHLVDGRDMIIIRMPKDFPPFPQKLKFREPQREERICLVTTNFQTKSMSSMVSDTSCTFPSGDGIFWKHWIQTKDGQCGSPLVSTRDGFIVGIHSASNFTNTNNYFTSVPKNFMELLTNQEAQQWVSGWRLNADSVLWGGHKVFMVKPEEPFQPVKEATQL [S17H],0.0522,0.0655,0.0591,0.0725,0.0622,0.0541,0.0625,–,0.0845,0.0635,0.0547,0.0562,0.0737,0.0474,–,–,0.0436,0.0594,0.0451
MGESLFKGPRDYNPISESICHLTNESDGHTTSLYGIGFGPFIITNKHLFRRNNGTLVVQSLHGVFKVKDTTTLQQHLVDGRDMIIIRMPKDFPPFPQKLKFREPQREERICLVTTNFQTKSMSSMVSDTSCTFPSGDGIFWKHWIQTKDGQCGSPLVSTRDGFIVGIHSASNFTNTNNYFTSVPKNFMELLTNQEAQQWVSGWRLNADSVLWGGHKVFMVKPEEPFQPVKEATQL [S17E],0.0651,0.0629,0.0739,0.0688,–,0.0584,0.058,0.0599,0.0713,0.0599,0.051,0.0576,–,0.0591,0.0163,0.0548,0.0667,0.0765,0.0508
MGESLFKGPRDYNPISMSICHLTNESDGHTTSLYGIGFGPFIITNKHLFRRNNGTLVVQSLHGVFKVKDTTTLQQHLVDGRDMIIIRMPKDFPPFPQKLKFREPQREERICLVTTNFQTKSMSSMVSDTSCTFPSGDGIFWKHWIQTKDGQCGSPLVSTRDGFIVGIHSASNFTNTNNYFTSVPKNFMELLTNQEAQQWVSGWRLNADSVLWGGHKVFMVKPEEPFQPVKEATQL [S17M],0.07,–,0.0631,0.0649,–,–,0.0454,0.065,0.0643,0.063,0.0609,0.0559,0.0519,0.0526,0.0581,0.0644,0.0649,0.0659,0.0606
MGESLFKGPRDYNPISKSICHLTNESDGHTTSLYGIGFGPFIITNKHLFRRNNGTLVVQSLHGVFKVKDTTTLQQHLVDGRDMIIIRMPKDFPPFPQKLKFREPQREERICLVTTNFQTKSMSSMVSDTSCTFPSGDGIFWKHWIQTKDGQCGSPLVSTRDGFIVGIHSASNFTNTNNYFTSVPKNFMELLTNQEAQQWVSGWRLNADSVLWGGHKVFMVKPEEPFQPVKEATQL [S17K],0.0535,0.0621,0.0633,0.0674,0.0483,0.0485,0.0539,–,0.0725,0.0697,0.065,0.0656,0.0429,0.0677,0.0568,0.0402,0.0421,–,0.0589
MGESLFKGPRDYDPISSSICHLTNESDGHTTSLYGIGFGPFIITNKHLFRRNNGTLVVQSLHGVFKVKDTTTLQQHLVDGRDMIIIRMPKDFPPFPQKLKFREPQREERICLVTTNFQTKSMSSMVSDTSCTFPSGDGIFWKHWIQTKDGQCGSPLVSTRDGFIVGIHSASNFTNTNNYFTSVPKNFMELLTNQEAQQWVSGWRLNADSVLWGGHKVFMVKPEEPFQPVKEATQL [N13D],0.0595,0.0543,0.0726,0.0673,–,0.056,0.0556,0.0643,0.0685,0.0677,–,0.0581,0.0644,0.0573,0.0465,0.0556,0.0523,0.0683,0.0606
MGESLFKGPRDYAPISSSICHLTNESDGHTTSLYGIGFGPFIITNKHLFRRNNGTLVVQSLHGVFKVKDTTTLQQHLVDGRDMIIIRMPKDFPPFPQKLKFREPQREERICLVTTNFQTKSMSSMVSDTSCTFPSGDGIFWKHWIQTKDGQCGSPLVSTRDGFIVGIHSASNFTNTNNYFTSVPKNFMELLTNQEAQQWVSGWRLNADSVLWGGHKVFMVKPEEPFQPVKEATQL [N13A],0.0637,–,0.0609,0.0812,–,0.0565,0.0586,0.0568,0.0635,0.0697,0.0607,–,0.0648,0.0643,0.0541,0.0414,–,0.0544,–
MGESLFQGPRDYNPISSSICHLTNESDGHTTSLYGIGFGPFIITNKHLFRRNNGTLVVQSLHGVFKVKDTTTLQQHLVDGRDMIIIRMPKDFPPFPQKLKFREPQREERICLVTTNFQTKSMSSMVSDTSCTFPSGDGIFWKHWIQTKDGQCGSPLVSTRDGFIVGIHSASNFTNTNNYFTSVPKNFMELLTNQEAQQWVSGWRLNADSVLWGGHKVFMVKPEEPFQPVKEATQL [K7Q],0.0615,0.0672,0.0736,0.0585,0.0603,–,0.0602,–,0.066,–,0.0645,0.0614,0.089,–,0.0708,–,–,0.0646,–
MEESLFKGPRDYNPISSSICHLTNESDGHTTSLYGIGFGPFIITNKHLFRRNNGTLVVQSLHGVFKVKDTTTLQQHLVDGRDMIIIRMPKDFPPFPQKLKFREPQREERICLVTTNFQTKSMSSMVSDTSCTFPSGDGIFWKHWIQTKDGQCGSPLVSTRDGFIVGIHSASNFTNTNNYFTSVPKNFMELLTNQEAQQWVSGWRLNADSVLWGGHKVFMVKPEEPFQPVKEATQL [G2E],0.0695,0.0693,–,0.0706,0.0497,0.0676,0.0526,–,0.0912,0.0303,0.062,0.0672,0.0501,–,0.0569,–,0.0573,0.0605,–
MGESLFKGPNDYNPISSSICHLTNESDGHTTSLYGIGFGPFIITNKHLFRRNNGTLVVQSLHGVFKVKDTTTLQQHLVDGRDMIIIRMPKDFPPFPQKLKFREPQREERICLVTTNFQTKSMSSMVSDTSCTFPSGDGIFWKHWIQTKDGQCGSPLVSTRDGFIVGIHSASNFTNTNNYFTSVPKNFMELLTNQEAQQWVSGWRLNADSVLWGGHKVFMVKPEEPFQPVKEATQL [R10N],0.0547,0.0483,0.0571,0.116,–,–,0.0606,0.0666,0.0506,0.0672,0.0571,0.0757,–,0.037,0.063,0.101,0.0631,–,0.0493
MGESLFKGMRDYNPISSSICHLTNESDGHTTSLYGIGFGPFIITNKHLFRRNNGTLVVQSLHGVFKVKDTTTLQQHLVDGRDMIIIRMPKDFPPFPQKLKFREPQREERICLVTTNFQTKSMSSMVSDTSCTFPSGDGIFWKHWIQTKDGQCGSPLVSTRDGFIVGIHSASNFTNTNNYFTSVPKNFMELLTNQEAQQWVSGWRLNADSVLWGGHKVFMVKPEEPFQPVKEATQL [P9M],0.0408,–,–,0.0668,–,0.0549,0.0593,0.0536,0.0542,–,0.053,–,–,0.0545,0.055,–,0.0632,0.0628,0.0591
MGESLFKGWRDYNPISSSICHLTNESDGHTTSLYGIGFGPFIITNKHLFRRNNGTLVVQSLHGVFKVKDTTTLQQHLVDGRDMIIIRMPKDFPPFPQKLKFREPQREERICLVTTNFQTKSMSSMVSDTSCTFPSGDGIFWKHWIQTKDGQCGSPLVSTRDGFIVGIHSASNFTNTNNYFTSVPKNFMELLTNQEAQQWVSGWRLNADSVLWGGHKVFMVKPEEPFQPVKEATQL [P9W],0.0652,0.022,–,0.0703,0.0571,0.0684,0.059,–,0.0787,0.0563,0.0425,–,0.0577,0.0635,0.0809,0.0482,–,0.0626,0.062
MGESLFKGPRMYNPISSSICHLTNESDGHTTSLYGIGFGPFIITNKHLFRRNNGTLVVQSLHGVFKVKDTTTLQQHLVDGRDMIIIRMPKDFPPFPQKLKFREPQREERICLVTTNFQTKSMSSMVSDTSCTFPSGDGIFWKHWIQTKDGQCGSPLVSTRDGFIVGIHSASNFTNTNNYFTSVPKNFMELLTNQEAQQWVSGWRLNADSVLWGGHKVFMVKPEEPFQPVKEATQL [D11M],0.0596,–,0.0718,0.0666,–,0.066,0.0612,0.0605,0.0549,0.0545,0.0615,–,0.0637,0.0579,0.0665,0.0635,0.0592,–,0.0585
MGESLFKGPRDYNPIWSSICHLTNESDGHTTSLYGIGFGPFIITNKHLFRRNNGTLVVQSLHGVFKVKDTTTLQQHLVDGRDMIIIRMPKDFPPFPQKLKFREPQREERICLVTTNFQTKSMSSMVSDTSCTFPSGDGIFWKHWIQTKDGQCGSPLVSTRDGFIVGIHSASNFTNTNNYFTSVPKNFMELLTNQEAQQWVSGWRLNADSVLWGGHKVFMVKPEEPFQPVKEATQL [S16W],0.053,0.0644,0.0593,0.0667,0.0574,0.0526,0.057,–,0.0596,–,0.0491,0.0693,0.0484,0.052,0.0606,0.0477,–,0.0777,–
MGESLFKGPRDYNPASSSICHLTNESDGHTTSLYGIGFGPFIITNKHLFRRNNGTLVVQSLHGVFKVKDTTTLQQHLVDGRDMIIIRMPKDFPPFPQKLKFREPQREERICLVTTNFQTKSMSSMVSDTSCTFPSGDGIFWKHWIQTKDGQCGSPLVSTRDGFIVGIHSASNFTNTNNYFTSVPKNFMELLTNQEAQQWVSGWRLNADSVLWGGHKVFMVKPEEPFQPVKEATQL [I15A],0.045,0.0432,0.0637,–,0.0566,0.0451,0.0506,0.0612,0.059,0.066,0.0645,–,–,0.0511,0.0434,0.0063,0.0528,–,0.0654
MGESLFKGPRDYNPYSSSICHLTNESDGHTTSLYGIGFGPFIITNKHLFRRNNGTLVVQSLHGVFKVKDTTTLQQHLVDGRDMIIIRMPKDFPPFPQKLKFREPQREERICLVTTNFQTKSMSSMVSDTSCTFPSGDGIFWKHWIQTKDGQCGSPLVSTRDGFIVGIHSASNFTNTNNYFTSVPKNFMELLTNQEAQQWVSGWRLNADSVLWGGHKVFMVKPEEPFQPVKEATQL [I15Y],0.0634,0.0493,0.0592,0.0616,0.0468,0.0622,0.0651,0.0447,0.0542,0.0535,0.0588,0.0556,0.06,–,–,0.0614,0.0544,0.0664,–
MGESLFKGPRDYNPWSSSICHLTNESDGHTTSLYGIGFGPFIITNKHLFRRNNGTLVVQSLHGVFKVKDTTTLQQHLVDGRDMIIIRMPKDFPPFPQKLKFREPQREERICLVTTNFQTKSMSSMVSDTSCTFPSGDGIFWKHWIQTKDGQCGSPLVSTRDGFIVGIHSASNFTNTNNYFTSVPKNFMELLTNQEAQQWVSGWRLNADSVLWGGHKVFMVKPEEPFQPVKEATQL [I15W],0.0615,0.0518,0.0628,0.067,0.0572,0.0608,0.0586,0.063,0.0674,0.0565,0.0638,0.0615,0.0583,0.0562,0.0552,0.0609,0.0398,0.0568,0.0444
